Structures can show the parent of a compound that is named as a salt. Over roughly 2,800 compounds, “cell viability relative to vehicle” has its median near 0.98; the lowest 2% begin near 0.45. The list shows a part of the results.

The subject of the assay is NCI-H2228 alectinib-DTP. The assay can be described thus: cell viability relative to vehicle (fraction of vehicle); NCI-H2228 is an ALK-positive lung cancer line and DTP means drug-tolerant persister; higher = less growth inhibition. Conditions: 100 nM; treatment time 6 days. An outline of the steps:
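Each value is viability relative to vehicle-treated cells, measured as ATP with the CellTiter-Glo 3D Cell Viability Assay. Parental NCI-H2228 cells and drug-tolerant persisters (1000 nM targeted drug, 13 days) in 384-well plates received the 3114-agent TargetMol anti-cancer compound library at 100 nM, or DMSO, and were read 6 days later.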
Compound `COc1cc(/C=C/c2ccc(O)cc2)cc(OC)c1` [Pterostilbene] displayed a cell viability of 0.819.

As for `CCOC(=O)c1ncn2c1CN(C)C(=O)c1cc(F)ccc1-2` [Flumazenil], the cell viability amounted to 0.912.

With `O=NN(CCCl)C(=O)NCCCl` [Carmustine], the cell viability is 0.936.

Regarding `CC1=C(C(=O)Nc2cc3cn[nH]c3cc2F)C(c2ccc(C(F)(F)F)cc2)CC(=O)N1` (configuration not stated), the cell viability came out at 1.11.

`CNC(=O)c1ccccc1Nc1nc(Nc2ccc(N3CCOCC3)cc2OC)ncc1Cl` gave a cell viability of 0.926.

With `Cn1c(=O)cc(C(=O)Nc2ccc3c(c2)OCCO3)c2ccccc21`, the cell viability stood at 0.872.

`O[C@@H]1[C@H](O)[C@H](O)CO[C@H]1O` [D-(-)-Ribose] registered a cell viability of 1.06.

`CCCCN(Cc1ccc(C(=O)NO)cc1)C(=O)Nc1ccccc1` [Nexturastat A]: the cell viability was found to be 0.877.

In turn, `CC(C(=O)O)c1cccc(C(=O)c2ccccc2)c1` (configuration not stated) [Ketoprofen] returned a cell viability of 0.994.

In the case of `N#Cc1ccnc(Nc2cc(C3CCN(C4COC4)CC3)cc(N3CCC(F)(F)C3)n2)c1`, the cell viability came to 0.854.

In turn, `Cn1c(=O)c(Oc2ccc(F)cc2F)cc2cnc(NC(CCO)CCO)nc21` [Pamapimod] came in with a cell viability of 1.01.

`NCCCC[C@@H]1NC(=O)[C@@H](Cc2ccccc2)NC(=O)[C@H](CC(=O)O)NC(=O)CNC(=O)[C@H](CCCN=C(N)N)NC1=O` [Cyclo (-RGDfK)] came in with a cell viability of 0.995.

As to `c1cc(-c2cnn3cc(-c4ccc(N5CCNCC5)cc4)cnc23)c2cccnc2c1`, the cell viability is 1.19.

For `O=C([O-])CN(CCN(CC(=O)[O-])CC(=O)O)CC(=O)[O-].[Na+].[Na+].[Na+]` [Edetate Trisodium], the cell viability came to 1.15.

The compound `COc1ccc(/C=C\c2cc(OC)c(OC)c(OC)c2)cc1O` [Combretastatin A4] had a cell viability of 0.642.

In turn, `Cc1cccc(C)c1N(CC(=O)Nc1ccc(-c2ncon2)cc1)C(=O)C1CCS(=O)(=O)CC1` [Amenamevir] registered a cell viability of 0.926.

`CCN(CC)CCNC(=O)c1c(C)[nH]c(/C=C2\C(=O)Nc3ccc(-c4csc(-c5ccccc5)n4)cc32)c1C` [Amcasertib] came in with a cell viability of 1.18.

As for `COc1cc(C(C)=O)ccc1OCCCN1CCC(c2noc3cc(F)ccc23)CC1` [Iloperidone], the cell viability was 0.901.

Take `C[C@@H]1CC(=O)Nc2cccc(-c3ccc4c(c3)c(-c3cnn(C)c3)nn4C)c2N1`: the cell viability turned out to be 1.01.

`CC(C)(C)c1ccc(C(=O)NC(=S)Nc2ccc(N)cc2)cc1` [Tenovin3] registered a cell viability of 0.734.

On to `COc1c(N2C[C@@H]3CCCN[C@@H]3C2)c(F)cc2c(=O)c(C(=O)O)cn(C3CC3)c12` [Moxifloxacin hydrochloride], for which the cell viability came out at 1.03.

As for `Nc1nc2cc(-c3ccc4ncc(C(=O)N5CCOCC5)n4c3)ccc2o1` [Serabelisib], the cell viability amounted to 0.985.

On to `COc1ncnc(NS(=O)(=O)c2ccc(N)cc2)c1OC` [Sulfadoxine], for which the cell viability was determined as 1.02.

As for `CS(=O)(=O)N1CCN(Cc2cc3nc(-c4cccc5[nH]ncc45)nc(N4CCOCC4)c3s2)CC1` [Pictilisib], the cell viability came out at 0.669.

In turn, `CC(C)NCC(O)c1ccc(O)c(O)c1` (configuration not stated) [Isoprenaline hydrochloride] showed a cell viability of 1.15.

With `COc1ccc2[nH]c([S@@+]([O-])Cc3ncc(C)c(OC)c3C)nc2c1` [Esomeprazole Magnesium], the cell viability is 0.972.

Take `Oc1ccc(-c2c(-c3ccccc3)nn3c(C(F)(F)F)cc(C(F)(F)F)nc23)cc1`: the cell viability came out at 1.04.

Consider `COc1ccc(S(=O)(=O)Nc2c(C)cc(C)cc2C)cc1`, for which the cell viability is 1.02.

For the compound `Cc1cc(O)c(C(=O)CCC(C)C)c(=O)o1` [Pogostone], the cell viability worked out at 1.13.

Regarding `Nc1nc2c(ncn2COCCO)c(=O)[nH]1` [Aciclovir], the cell viability was found to be 1.11.

`CC(C)(CCCCCC(O)CCCCCC(C)(C)C(=O)O)C(=O)O`: the cell viability worked out at 1.1.

The compound `O=C(O)Cn1c2c(c3cc(F)ccc31)CN(C(=O)c1cccc3ccccc13)CC2` [Setipiprant] showed a cell viability of 1.18.

As for `O=S(=O)(c1ccccc1)N(CC(F)(F)F)c1ccc(C(O)(C(F)(F)F)C(F)(F)F)cc1`, the cell viability is 0.833.

In the case of `CC#CC(=O)Nc1ccc2ncnc(Nc3cccc(Br)c3)c2c1`, the cell viability was determined as 0.829.

With `Cc1nc2cccc(N)c2c(=O)n1C1CCC(=O)NC1=O` (configuration not stated) [Avadomide], the cell viability was determined as 0.982.

For `CC(C)n1cnc2c(-c3cnc(N)nc3)nc(N3CCOCC3)nc21` [Desmethyl-VS-5584], the cell viability was determined as 0.893.

In turn, `O=C(O)c1ccc(N2C(=O)/C(=C\c3ccc(-c4ccc([N+](=O)[O-])cc4)o3)C=C2c2ccccc2)cc1` [4E1rcat] had a cell viability of 0.914.

Compound `COc1cc(F)c(F)c(Nc2ccc(I)cc2F)c1NS(=O)(=O)C1(C[C@H](O)CO)CC1` [Refametinib] had a cell viability of 1.06.

The compound `C#C[C@]1(O)CC[C@H]2[C@@H]3CCc4cc(O)ccc4[C@H]3CC[C@@]21C` [Ethynyl estradiol] registered a cell viability of 1.03.

In turn, `O=C(O)C(Cc1c[nH]c2ccccc12)N1C(=O)c2ccccc2C1=O` (configuration not stated) returned a cell viability of 0.915.

For `CCOc1cc(CC(=O)N[C@@H](CC(C)C)c2ccccc2N2CCCCC2)ccc1C(=O)O` [Repaglinide], the cell viability is 1.13.

`C[C@@H]1CC[C@]2(C(=O)O)CC[C@]3(C)C(=CCC4[C@@]5(C)CC[C@H](O[C@@H]6OC[C@H](O)[C@H](O)[C@H]6O)C(C)(C)C5CC[C@]43C)[C@@H]2[C@]1(C)O` (some centres not stated) [Ziyuglycoside II] showed a cell viability of 1.09.

In turn, `Cn1c(=O)n(-c2ccc(C(C)(C)C#N)cc2)c2c3cc(-c4cnc5ccccc5c4)ccc3ncc21` [Dactolisib] registered a cell viability of 0.435.

The compound `Cc1cc(C(=O)Nc2nc3cccc(Cl)c3n2[C@@H]2CCCCN(C(=O)/C=C/CN(C)C)C2)ccn1` [Nazartinib] came in with a cell viability of 0.907.

`COc1cc2/c(=N/c3ccc(Br)cc3F)nc[nH]c2cc1OCC1CCN(C)CC1` [Vandetanib]: the cell viability is 0.905.

As to `Cn1cc(C[C@@H](N)C(=O)O)c2ccccc21` [Indoximod], the cell viability stood at 1.14.

`O=C(CCCCCN1C(=O)c2cccc3cccc(c23)C1=O)NO` [Scriptaid] displayed a cell viability of 0.917.

In the case of `O=C(O)[C@@H]1CSCN1` [Thioproline], the cell viability is 1.1.

The compound `C=C[C@@]1(C)CC(=O)[C@]2(O)[C@@]3(C)[C@@H](O)CCC(C)(C)[C@@H]3[C@H](O)[C@H](OC(C)=O)[C@@]2(C)O1` [Forskolin] had a cell viability of 1.1.

`CCN(CC)C(=S)SSC(=S)N(CC)CC` [Disulfiram] gave a cell viability of 0.983.

For the compound `O=C1C(=Cc2cccnc2)C(=O)c2ccccc21`, the cell viability was 1.07.

In turn, `Cc1cc(OCCCS(C)(=O)=O)cc(C)c1-c1cccc(COc2ccc3c(c2)OC[C@H]3CC(=O)O)c1` showed a cell viability of 0.968.
